From PubChem BioAssay AID1240 (Sanford-Burnham Center for Chemical Genomics, 2008)
Out of some 50,000 compounds screened, about 800 (1.6%) showed an effect of 50% or more. The list shows a part of the results.

Target: Bcl-2-like protein 10 (Homo sapiens) (UniProt Q9HD36)
Test: Phenotype converters, Bcl-B/TR3 peptide binding displacement, primary biochemical FP (AID 1240);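 further: 0% = Bcl-B with tracer peptide and DMSO and 100% = tracer peptide lacking Bcl-B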
Conditions: GST-Bcl-B / FITC-TR3 peptide fluorescence polarization; stronger effect = higher value; compound at 3.75 mg/L

Sequence of UniProt Q9HD36 (Q9HD36 whole entry, looked up): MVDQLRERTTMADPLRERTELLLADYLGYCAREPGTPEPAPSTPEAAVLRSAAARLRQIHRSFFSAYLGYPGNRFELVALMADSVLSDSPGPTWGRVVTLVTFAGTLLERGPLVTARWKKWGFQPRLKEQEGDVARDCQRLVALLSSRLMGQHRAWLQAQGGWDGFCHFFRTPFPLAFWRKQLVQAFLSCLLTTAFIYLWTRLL

| SMILES | displacement |
| --- | --- |
| O=C(Nc1ccc2nccnc2c1)N1CCN(c2ccccc2)CC1 | 5.9% |
| O=C(c1ccccc1)N1N=C2CCCCCC2C1(O)C(F)(F)F (centres undefined) | -1.7% |
| COCCNC(=O)c1ccc(Cl)cc1Cl | -5.3% |
| CC(C)(C)C(=O)NNC(=O)C(=O)N1CCOCC1 | -4.6% |
| C(=N\N=C\c1ccc2c(c1)OCO2)/c1ccc2c(c1)OCO2 | 4.9% |
| O=C(CN1C(=O)c2cccc3cccc(c23)C1=O)N1CCN(CCN2C(=O)C3C4C=CC(C4)C3C2=O)CC1 (centres undefined) | -1.9% |
| O=c1oc2cc(OCc3ccc(F)cc3)c(Cl)cc2c2c1CCC2 | 0.9% |
| CC(C)(C)c1ccc(S(=O)(=O)Nc2ccc(Cl)cc2)cc1 | 14% |
| CN1C(=O)CC(N2CCN(c3ccccc3)CC2)C1=O (centres undefined) | 6.2% |
| CC1=C(C(=O)OCCOc2ccccc2)C(c2ccc(Cl)cc2)NC(=O)N1 (centres undefined) | 9.1% |
| COc1ccc(N2C(=O)/C(=C/c3ccc(-c4ccccc4[N+](=O)[O-])o3)C(=O)NC2=S)cc1 | 15.9% |
| COC(=O)c1ccccc1NC(=O)c1ccc(-c2cccc(Cl)c2)o1 | 1.9% |
| O=C(c1ccc(Cl)cc1)N1CCN(c2c(Cl)cccc2[N+](=O)[O-])CC1 | 12.6% |
| Nc1cccc(C(=O)Nc2ccc(C(=O)O)cc2)c1 | 13.5% |
| CCCc1ccc(-c2nc(Cc3ccc(OC)cc3)no2)cc1 | -8.7% |
| CC(=O)Nc1ccccc1NC(=O)COc1ccc(Br)c(C)c1 | 5.9% |
| COC(=O)c1c(NC(=O)c2cc3ccccc3oc2=O)sc2c1C(C(=O)OC)CC2 (centres undefined) | 8.1% |
| Cc1nc2sc3c(c2c(=O)[nH]1)CCC3 | 8.7% |
| COc1ccc(C(=O)NCc2ccccc2C)cc1OC | 16.3% |
| CCS(=O)(=O)C(=CNc1ccccc1)S(=O)(=O)CC | 13.5% |
| CC1(C)CC(=O)C2=C(C1)OC1=C(C(=O)CC(C)(C)C1)C2c1ccc(Br)c([N+](=O)[O-])c1 | 11.9% |
| Cc1ccccc1C(=O)NCc1ccco1 | -7.7% |
| CC1(C)Cc2c(ccc3ccccc23)C(=O)N1 | 11.1% |

| SMILES | displacement |
| --- | --- |
| COc1ccc(Br)cc1CN1CCN(C(=O)c2cccc(Cl)c2)CC1 | 3.4% |
| Cc1cc(C)c(C(=O)/C(=C/c2ccccc2F)c2ccccc2)c(=O)[nH]1 | -3.4% |
| N#C/C(=C/c1ccc(-c2ccccc2)cc1)c1nc(-c2ccc(Cl)cc2)cs1 | 10.2% |
| COc1ccccc1N1CCN(C(=O)c2cc(-c3ccccc3Cl)nc3ccccc23)CC1 | -3.2% |
| CCCCCCNC(=O)c1ccc(F)cc1 | 2.4% |
| Cc1ccc2c(c1)-c1c(ssc1=S)C(C)(C)N2C(=O)CSc1nc2ccccc2o1 | 32.6% |
| CN1CCN(CC(=O)n2c3ccccc3c3ccccc32)CC1 | -6.7% |
| O=C(COc1cc2oc(=O)c3c(c2cc1Cl)CCCC3)OCc1ccccc1 | 0.7% |
| O=C(O)c1cccnc1SC1CC(=O)N(c2ccc([N+](=O)[O-])cc2)C1=O (centres undefined) | 5.9% |
| COc1ccc(S(=O)(=O)N(CCc2ccccc2)CC(=O)NCC2CCCO2)cc1 (centres undefined) | -15.8% |
| Cn1nc(CC(=O)O)c2ccccc2c1=O | 7.8% |
| COc1cc(/C=N/n2cnnc2)ccc1OS(=O)(=O)c1ccccc1[N+](=O)[O-] | -2% |
| CCCOc1ccc(C(=O)Nc2ncc(Cc3ccc(F)cc3)s2)cc1 | -11.1% |
| COc1cc(NS(=O)(=O)c2cccc([N+](=O)[O-])c2)cc(OC)c1 | -3.6% |
| O=C1CC(c2ccc3c(c2)OCO3)CC2=C1C(c1ccc(-c3ccccc3)cc1)Nc1ccccc1N2 (centres undefined) | 3% |
| CCOc1ccc(/C=N/Nc2nc(-c3ccc(C)cc3)nc3ccccc23)c(O)c1 | 34.7% |
| O=C(Nc1ccc(-c2nc3ccccc3o2)cc1)c1ccco1 | 10% |
| CCc1ccc(N2NC(=O)/C(=C/c3ccc(N4CCOCC4)cc3)C2=O)cc1 | 5% |
| Cc1ccc(N=Cc2c(C)[nH]c3ccccc23)cc1I | 6.1% |
| Cc1cccc(N2C(=O)CC(N3CCN(C/C=C/c4ccccc4)CC3)C2=O)c1 (centres undefined) | 9.3% |
| Cc1cc(OCC(=O)Nc2ccc(F)cc2)ccc1Br | -13.4% |
| CCOC(=O)CSCCOc1ccc(/C=C2/C(=O)NC(=O)N(c3ccc(OC)cc3)C2=O)cc1OC | 17.6% |
| CC(C)(C)c1ccc(-c2nn(CCC#N)cc2/C=N/O)cc1 | 1.1% |

| SMILES | displacement |
| --- | --- |
| O=C(N/N=C/c1ccccc1O)NC12CC3CC(CC(C3)C1)C2 | -2.4% |
| CCOC(=O)c1ccc(NC2=NC(C)(C)Cc3ccccc32)cc1 | -3.3% |
| O=C(c1cc2n(n1)C(C(F)(F)F)CC(c1ccc(Cl)c(Cl)c1)N2)N1CCN(Cc2ccccc2)CC1 (centres undefined) | 6.2% |
| CCc1ccc(CN2CCN(Cc3ccc(OC)cc3OC)CC2)cc1 | -2.3% |
| CCOC(=O)C(=CNc1ccc(F)c(F)c1O)C(=O)OCC | -13% |
| CN1CCN(CC(=O)N2c3ccccc3C(C)(c3ccccc3)CC2(C)C)CC1 (centres undefined) | -3.9% |
| O=C1NC(=O)N(c2ccccc2)C(=O)/C1=C\c1cccc(OCc2ccc(F)cc2)c1 | 13.6% |
| CCOc1ccc(/C=N/NC(=O)CN(c2ccc(C)cc2)S(=O)(=O)c2ccccc2)cc1 | -4.7% |
| O=C(O)CCCCCN1C(=O)C(=O)/C(=C(/O)c2ccccc2)C1c1ccccc1F (centres undefined) | 0.1% |
| O=C(Cc1ccc(Br)cc1)NC(c1ccccc1)c1ccccc1 | -3.8% |
| Nn1cnc2scc(-c3ccc(Cl)cc3)c2c1=O | 5.9% |
| CCOC(=O)c1c(NC(=O)c2ccncc2)sc2c1CCC(C)C2 (centres undefined) | 7.5% |
| C=CCn1c(-c2cc(OC)c(OC)c(OC)c2)n[nH]c1=S | -7.4% |
| COc1ccc(OCC(=O)Nc2ccccc2CO)cc1 | -5.7% |
| CCNC(=O)c1c(N)sc2c1CCCCC2 | 36.8% |
| CNC(=O)CN(c1ccc(C)cc1)S(=O)(=O)c1ccc(OC)c(OC)c1 | -12.8% |
| CCNC(=O)CN(c1ccccc1OCC)S(=O)(=O)c1ccccc1 | 10.1% |
| Cc1ccc(C(=O)/C=C/c2ccccc2OCc2ccccc2)cc1 | 10.5% |
| COc1ccc(S(=O)(=O)N2CCN(Cc3ccncc3)CC2)cc1 | -7.9% |
| COc1ccc(N2C(=O)NC(=O)/C(=C/c3ccc(-c4ccccc4[N+](=O)[O-])o3)C2=O)cc1 | -46.3% |
| Cc1ccc(OCC(=O)NCc2ccc(F)cc2)c(Br)c1 | -3.1% |
| Cc1ccc(-c2ccc(/C=C3\C(=O)NN(c4ccccc4)C3=O)o2)c([N+](=O)[O-])c1 | 14.1% |
| COc1ccccc1OCCOc1cccc(/C=C2/SC(=S)N(C)C2=O)c1 | 95.5% |
